Experimental findings from patent US20240076343A1 are described below.

What all share (experiment): cell-based or functional assay
Assay [1] has as its target intermediate affinity hIL-2 receptor complex (IL-2Rβγ) (human) (UniProt P14784).
The target in assay [2] is high-affinity hIL-2 receptor (IL-2Rαβγ) on NK-92 cells (human) (UniProt P01589).
Assay [3] addresses intermediate affinity hIL-2 receptor (hIL-2Rβγ) on TF1+IL-2Rβ cells (human) (UniProt P14784).
Assay [4] deals with high-affinity hIL-2 receptor (IL-2Rαβγ) (human) (UniProt P01589).
The target of assay [5] is intermediate affinity hIL-2 receptor complex (IL-2Rβγ) on TF1+IL-2Rβ cells (human) (UniProt P14784).

B1: 1H3-hIgG1-L6-hIL-2 (R38E/H16E) (protein)
heavy: EVQLVESGGGLVQPGRSLKLSCAVSGFTFSDYAMAWVRQAPKKGLEWVATISYDGSRTYYRDSVKGRFTISRDNAKITLYLQMDSLRSEDTATYYCARHGSGYFDYWGQGVMVTVSS[not shown - about 450 residues with a human IgG1 Fc and changes]
light: DTVLTQSPALAVSPGERVTISCRASESVRTGVHWYQQKPGQQPKLLIYGASNLESGVPARFSGSGSGTDFTLTIDPVEADDTATYFCQQSWNDPFTFGSGTKLEIKRTVAAPSVFIFPPSDEQLKSGTASVVCLLNNFYPREAKVQWKVDNALQSGNSQESVTEQDSKDSTYSLSSTLTLSKADYEKHKVYACEVTHQGLSSPVTKSFNRGEC
With B1, in assay [1], the Fold change from hIL-2 (TF1 + IL-2Rβ), pSTAT5 fixed conc. stood at 3 fold. In assay [2], this molecule yielded a Fold change from rhIL-2 (NK-92) of 658 fold. Further, the Fold change from rhIL-2 (TF1 + IL-2Rβ) in assay [3] came out at 58 fold. This molecule came in with a Fold change from hIL-2 (NK-92), pSTAT5 fixed conc. in assay [4] of 25 fold.

B2: 1H3-hIgG1-L6-hIL-2 (I92D/Y45S) (protein)
heavy: EVQLVESGGGLVQPGRSLKLSCAVSGFTFSDYAMAWVRQAPKKGLEWVATISYDGSRTYYRDSVKGRFTISRDNAKITLYLQMDSLRSEDTATYYCARHGSGYFDYWGQGVMVTVSS[not shown - about 450 residues with a human IgG1 Fc and changes]
light: B1 light
As to B2, in assay [1], the Fold change from hIL-2 (TF1 + IL-2Rβ), pSTAT5 fixed conc. stood at 3 fold. The same molecule came in with a Fold change from rhIL-2 (NK-92) in assay [2] of 20 fold. For the same molecule, in assay [3], the Fold change from rhIL-2 (TF1 + IL-2Rβ) came out at 306 fold. The Fold change from hIL-2 (NK-92), pSTAT5 fixed conc. in assay [4] stood at 11 fold.

B3: 1H3-hIgG1-L6-hIL-2 (I92D/F42Y) (protein)
heavy: EVQLVESGGGLVQPGRSLKLSCAVSGFTFSDYAMAWVRQAPKKGLEWVATISYDGSRTYYRDSVKGRFTISRDNAKITLYLQMDSLRSEDTATYYCARHGSGYFDYWGQGVMVTVSS[not shown - about 450 residues with a human IgG1 Fc and changes]
light: B1 light
Take B3: the Fold change from hIL-2 (TF1 + IL-2Rβ), pSTAT5 fixed conc. in assay [1] was 3 fold. In assay [2], this molecule displayed a Fold change from rhIL-2 (NK-92) of 58 fold. In addition, the Fold change from rhIL-2 (TF1 + IL-2Rβ) in assay [3] stood at 106 fold. The molecule also yielded a Fold change from hIL-2 (NK-92), pSTAT5 fixed conc. in assay [4] of 22 fold.

B4: 1H3-hIgG1-L6-hIL-2 (I92D/Y45F) (protein)
heavy: EVQLVESGGGLVQPGRSLKLSCAVSGFTFSDYAMAWVRQAPKKGLEWVATISYDGSRTYYRDSVKGRFTISRDNAKITLYLQMDSLRSEDTATYYCARHGSGYFDYWGQGVMVTVSS[not shown - about 450 residues with a human IgG1 Fc and changes]
light: B1 light
In the case of B4, the Fold change from hIL-2 (TF1 + IL-2Rβ), pSTAT5 fixed conc. in assay [1] was 3 fold. The same molecule yielded a Fold change from rhIL-2 (NK-92) in assay [2] of 33 fold. Also, in assay [3], the Fold change from rhIL-2 (TF1 + IL-2Rβ) was found to be 1650 fold. For the same molecule, in assay [4], the Fold change from hIL-2 (NK-92), pSTAT5 fixed conc. was 10 fold.

B5: 1H3-hIgG1-L6-hIL-2 (H16A) (protein)
heavy: EVQLVESGGGLVQPGRSLKLSCAVSGFTFSDYAMAWVRQAPKKGLEWVATISYDGSRTYYRDSVKGRFTISRDNAKITLYLQMDSLRSEDTATYYCARHGSGYFDYWGQGVMVTVSS[not shown - about 450 residues with a human IgG1 Fc and changes]
light: B1 light
Molecule B5 had a Fold change from hIL-2 (NK-92) in assay [2] of 1 fold. Besides, in assay [5], the Fold change from hIL-2 (TF1 + IL-2Rβ) stood at 1 fold.

B6: 1H3-hIgG1-L6-hIL-2 (R38K/D20A) (protein)
heavy: EVQLVESGGGLVQPGRSLKLSCAVSGFTFSDYAMAWVRQAPKKGLEWVATISYDGSRTYYRDSVKGRFTISRDNAKITLYLQMDSLRSEDTATYYCARHGSGYFDYWGQGVMVTVSS[not shown - about 450 residues with a human IgG1 Fc and changes]
light: B1 light
With B6, the Fold change from hIL-2 (TF1 + IL-2Rβ), pSTAT5 fixed conc. in assay [1] stood at 3 fold. Further, the Fold change from rhIL-2 (NK-92) in assay [2] stood at 66 fold. In assay [3], the Agonistic Activity (TF1 + IL-2Rβ) is 70% and the Fold change from rhIL-2 (TF1 + IL-2Rβ) is 369 fold. The same molecule yielded a Fold change from hIL-2 (NK-92), pSTAT5 fixed conc. in assay [4] of 17 fold.

B7: 1H3-hIgG1-L6-hIL-2 (I92D/F42V) (protein)
heavy: EVQLVESGGGLVQPGRSLKLSCAVSGFTFSDYAMAWVRQAPKKGLEWVATISYDGSRTYYRDSVKGRFTISRDNAKITLYLQMDSLRSEDTATYYCARHGSGYFDYWGQGVMVTVSS[not shown - about 450 residues with a human IgG1 Fc and changes]
light: B1 light
Turning to B7, in assay [1], the Fold change from hIL-2 (TF1 + IL-2Rβ), pSTAT5 fixed conc. was found to be 3 fold. In assay [2], this molecule came in with an Agonistic Activity (NK-92) of 60% and a Fold change from rhIL-2 (NK-92) of 1080 fold. Moreover, the Fold change from rhIL-2 (TF1 + IL-2Rβ) in assay [3] is 343 fold. In addition, in assay [4], the Fold change from hIL-2 (NK-92), pSTAT5 fixed conc. is 30 fold.

B8: 1H3-hIgG1-L6-hIL-2 (I92D/Y45Q) (protein)
heavy: EVQLVESGGGLVQPGRSLKLSCAVSGFTFSDYAMAWVRQAPKKGLEWVATISYDGSRTYYRDSVKGRFTISRDNAKITLYLQMDSLRSEDTATYYCARHGSGYFDYWGQGVMVTVSS[not shown - about 450 residues with a human IgG1 Fc and changes]
light: B1 light
Regarding B8, the Fold change from hIL-2 (TF1 + IL-2Rβ), pSTAT5 fixed conc. in assay [1] worked out at 3 fold. Moreover, the Fold change from rhIL-2 (NK-92) in assay [2] is 53 fold. In addition, the Fold change from rhIL-2 (TF1 + IL-2Rβ) in assay [3] came out at 80 fold. Also, the Fold change from hIL-2 (NK-92), pSTAT5 fixed conc. in assay [4] was determined as 25 fold.

B9: 1H3-hIgG1-L6-hIL-2 (R38E/D20H) (protein)
heavy: EVQLVESGGGLVQPGRSLKLSCAVSGFTFSDYAMAWVRQAPKKGLEWVATISYDGSRTYYRDSVKGRFTISRDNAKITLYLQMDSLRSEDTATYYCARHGSGYFDYWGQGVMVTVSS[not shown - about 450 residues with a human IgG1 Fc and changes]
light: B1 light
With B9, the Fold change from hIL-2 (TF1 + IL-2Rβ), pSTAT5 fixed conc. in assay [1] was found to be 5 fold. The molecule also gave a Fold change from rhIL-2 (NK-92) in assay [2] of 13 fold. For the same molecule, in assay [3], the Agonistic Activity (TF1 + IL-2Rβ) is 40% and the Fold change from rhIL-2 (TF1 + IL-2Rβ) is 2940 fold. The same molecule had a Fold change from hIL-2 (NK-92), pSTAT5 fixed conc. in assay [4] of 17 fold.

B10: 1H3-hIgG1-L6-hIL-2 (I92D/Y45G) (protein)
heavy: EVQLVESGGGLVQPGRSLKLSCAVSGFTFSDYAMAWVRQAPKKGLEWVATISYDGSRTYYRDSVKGRFTISRDNAKITLYLQMDSLRSEDTATYYCARHGSGYFDYWGQGVMVTVSS[not shown - about 450 residues with a human IgG1 Fc and changes]
light: B1 light
For B10, the Fold change from hIL-2 (TF1 + IL-2Rβ), pSTAT5 fixed conc. in assay [1] amounted to 3 fold. Moreover, the Fold change from rhIL-2 (NK-92) in assay [2] came out at 41 fold. The Fold change from rhIL-2 (TF1 + IL-2Rβ) in assay [3] is 91 fold. The molecule further yielded a Fold change from hIL-2 (NK-92), pSTAT5 fixed conc. in assay [4] of 20 fold.

B11: 1H3-hIgG1-L6-hIL-2 (R38E/I92K) (protein)
heavy: EVQLVESGGGLVQPGRSLKLSCAVSGFTFSDYAMAWVRQAPKKGLEWVATISYDGSRTYYRDSVKGRFTISRDNAKITLYLQMDSLRSEDTATYYCARHGSGYFDYWGQGVMVTVSS[not shown - about 450 residues with a human IgG1 Fc and changes]
light: B1 light
Take B11: the Fold change from hIL-2 (TF1 + IL-2Rβ), pSTAT5 fixed conc. in assay [1] came to 3 fold. In assay [2], this molecule yielded an Agonistic Activity (NK-92) of 70% and a Fold change from rhIL-2 (NK-92) greater than 10000 fold. Also, the Fold change from rhIL-2 (TF1 + IL-2Rβ) in assay [3] was 239 fold. This molecule displayed a Fold change from hIL-2 (NK-92), pSTAT5 fixed conc. in assay [4] of 24 fold.

B12: 1H3-hIgG1-L6-hIL-2 (I92D/Y45A) (protein)
heavy: EVQLVESGGGLVQPGRSLKLSCAVSGFTFSDYAMAWVRQAPKKGLEWVATISYDGSRTYYRDSVKGRFTISRDNAKITLYLQMDSLRSEDTATYYCARHGSGYFDYWGQGVMVTVSS[not shown - about 450 residues with a human IgG1 Fc and changes]
light: B1 light
With B12, the Fold change from hIL-2 (TF1 + IL-2Rβ), pSTAT5 fixed conc. in assay [1] is 3 fold. For the same molecule, the Fold change from rhIL-2 (NK-92) in assay [2] was determined as 15 fold. The Fold change from rhIL-2 (TF1 + IL-2Rβ) in assay [3] is 285 fold. This molecule returned a Fold change from hIL-2 (NK-92), pSTAT5 fixed conc. in assay [4] of 11 fold.
